# According to the supplement of paper PMC4967469:
# The IC50 comes from the fitted curve, where viability falls to half of the control; where the fit passes the top or lowest dose, that dose stands as a limit. The AUC spans the tested range (256-fold, ending at the top dose) of the same fit: 1 means no effect, lower means more sensitive. For part of these data: An inferred top dose was derived from the fitted curves, not read from the paper.
# What was measured:
# Assay in all cases: Viability of human cancer cell lines after 72 h of drug (GDSC screen)
# JW-7-52-1 = compound: CCC(=O)N1CCN(c2ccc(-n3c(=O)ccc4cnc5ccc(-c6cnc7ccccc7c6)cc5c43)cc2C(F)(F)F)CC1 [JW-7-52-1]; conditions: top dose 1.2 µM; top dose inferred
# Method: (§1)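 Human cancer cell lines in 384-well plates, medium with 10% serum, drug for 72 h over a 256-fold dose range (nine 2-fold or five 4-fold steps up to the top dose). Adherent lines were fixed and stained with the nucleic acid dye Syto60, suspension lines read with resazurin; signal relative to control wells, capped at 0 and 100%. One two-parameter sigmoid per drug and line, fitted in a mixed model over all curves with the slope shared within a line.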
# Temozolomide = compound: Cn1nnc2c(C(N)=O)ncn2c1=O [Temozolomide]; conditions: top dose 30 µM
# Method: as §1
# XL-880 = compound: COc1cc2c(Oc3ccc(NC(=O)C4(C(=O)Nc5ccc(F)cc5)CC4)cc3F)ccnc2cc1OCCCN1CCOCC1 [XL-880]; conditions: top dose 5.12 µM; top dose inferred
# Method: as §1
# Z-LLNle-CHO = compound: CCCC[C@@H](C=O)NC(=O)[C@H](CC(C)C)NC(=O)[C@H](CC(C)C)NC(=O)OCc1ccccc1 [Z-LLNle-CHO]; conditions: top dose 2.56 µM; top dose inferred
# Method: as §1
# IPA-3 = compound: Oc1ccc2ccccc2c1SSc1c(O)ccc2ccccc12 [IPA-3]; conditions: top dose 32 µM; top dose inferred
# Method: as §1
# CI-1040 = compound: O=C(NOCC1CC1)c1ccc(F)c(F)c1Nc1ccc(I)cc1Cl [CI-1040]; conditions: top dose 10 µM; top dose inferred
# Method: as §1
# Rapamycin = compound: CO[C@H]1C[C@@H]2CC[C@@H](C)[C@@](O)(O2)C(=O)C(=O)N2CCCC[C@H]2C(=O)O[C@H]([C@H](C)C[C@@H]2CC[C@@H](O)[C@H](OC)C2)CC(=O)[C@H](C)/C=C(\C)[C@@H](O)[C@@H](OC)C(=O)[C@H](C)C[C@H](C)/C=C/C=C/C=C/1C [Rapamycin]; conditions: top dose 0.1 µM; top dose inferred
# Method: as §1
# Tubastatin A = compound: CN1CCc2c(c3ccccc3n2Cc2ccc(C(=O)NO)cc2)C1 [Tubastatin A]; conditions: top dose 20 µM
# Method: as §1
Cell Line,AUC (JW-7-52-1),IC50 (JW-7-52-1) [nM],AUC (Temozolomide),IC50 (Temozolomide) [µM],AUC (XL-880),IC50 (XL-880) [nM],AUC (Z-LLNle-CHO),IC50 (Z-LLNle-CHO) [nM],AUC (IPA-3),IC50 (IPA-3) [µM],AUC (CI-1040),IC50 (CI-1040) [µM],AUC (Rapamycin),IC50 (Rapamycin) [nM],AUC (Tubastatin A),IC50 (Tubastatin A) [µM]
"IMR-5 (neuroblastoma, adherent)",0.556,104,0.978,> 30,0.592,546,0.834,1310,0.844,17.7,0.963,> 10,0.992,> 100,0.895,17.5
"NCI-H69 (small cell lung carcinoma, suspension)",0.702,299,0.965,> 30,0.942,> 5120,0.771,1100,0.982,> 32,0.974,> 10,0.923,> 100,0.965,> 20
"U-698-M (B-cell leukaemia, suspension)",0.883,> 1200,0.978,> 30,0.777,2050,0.939,> 2560,0.576,,0.909,> 10,0.963,> 100,0.945,> 20
"JVM-2 (lymphoid neoplasm, suspension)",0.833,1030,0.806,19.6,0.76,2190,0.86,> 2560,0.979,> 32,0.775,4.88,0.892,> 100,0.954,> 20
"KU812 (chronic myeloid leukaemia, suspension)",0.319,24.7,0.952,> 30,0.759,1640,0.771,897,0.682,6.13,0.637,1.44,0.384,3.09,0.526,1.47
"EB2 (Burkitt lymphoma, suspension)",0.954,> 1200,0.989,> 30,0.597,574,0.938,> 2560,0.627,4.32,0.969,> 10,0.965,> 100,0.886,18.4
"CCRF-CEM (lymphoblastic leukaemia, suspension)",0.385,38.2,0.968,> 30,0.486,295,0.753,736,0.552,2.7,0.797,3.88,0.473,5.35,0.826,9.63
"RPMI-6666 (Hodgkin lymphoma, suspension)",0.671,250,0.954,> 30,0.449,226,0.719,769,0.874,> 32,0.922,> 10,0.644,17.1,0.795,11.5
"NCI-SNU-1 (stomach, suspension)",0.788,544,0.978,> 30,0.496,311,0.969,> 2560,0.985,> 32,0.927,> 10,0.915,> 100,0.952,> 20
"HT (B-cell lymphoma, suspension)",0.514,81.8,0.964,> 30,0.719,1260,0.723,647,0.937,> 32,0.984,> 10,0.767,34.3,0.887,19.2
"DEL (lymphoid neoplasm, suspension)",0.337,29.5,0.802,11.3,0.734,1240,0.744,663,0.766,9.48,0.986,> 10,0.558,8.67,0.932,> 20
"HAL-01 (lymphoblastic leukaemia, suspension)",0.522,85.2,0.952,> 30,0.51,340,0.804,1110,0.825,16.2,0.629,1.35,0.876,79.5,0.772,6.86
"MS-1 (small cell lung carcinoma, suspension)",0.744,341,0.983,> 30,0.594,562,0.99,> 2560,0.954,> 32,0.979,> 10,0.986,> 100,0.879,16.8
"KY821 (leukaemia, suspension)",0.674,214,0.982,> 30,0.786,1900,0.793,1000,0.93,> 32,0.759,3.08,0.989,> 100,0.967,> 20
"LAMA-84 (chronic myeloid leukaemia, suspension)",0.351,28.7,0.974,> 30,0.265,67.8,0.783,1090,0.878,> 32,0.445,0.441,0.849,76.6,0.938,> 20
"NCI-H1869 (lung squamous cell carcinoma, adherent)",0.863,> 1200,0.97,> 30,0.817,3340,0.734,821,0.849,29,0.866,> 10,0.87,> 100,0.981,> 20

Cell Line,AUC (JW-7-52-1),IC50 (JW-7-52-1) [nM],AUC (Temozolomide),IC50 (Temozolomide) [µM],AUC (XL-880),IC50 (XL-880) [nM],AUC (Z-LLNle-CHO),IC50 (Z-LLNle-CHO) [nM],AUC (IPA-3),IC50 (IPA-3) [µM],AUC (CI-1040),IC50 (CI-1040) [µM],AUC (Rapamycin),IC50 (Rapamycin) [nM],AUC (Tubastatin A),IC50 (Tubastatin A) [µM]
"MONO-MAC-6 (acute myeloid leukaemia, suspension)",0.509,79.3,0.927,> 30,0.101,< 20,0.757,933,0.907,> 32,0.893,> 10,0.863,95.2,0.739,6.31
"KARPAS-45 (lymphoblastic leukaemia, suspension)",0.786,427,0.981,> 30,0.411,190,0.823,1190,0.731,7.93,0.969,> 10,0.91,> 100,0.735,5.1
"ARH-77 (myeloma, suspension)",0.504,77,0.971,> 30,0.685,1030,0.773,957,0.971,> 32,0.965,> 10,0.753,32.4,0.868,17
"NCI-H322M (lung adenocarcinoma, suspension)",0.951,> 1200,0.983,> 30,0.7,1350,0.985,> 2560,0.981,> 32,0.9,> 10,0.901,> 100,0.958,> 20
"SK-ES-1 (Ewing sarcoma, semi-adherent)",0.507,78.4,0.975,> 30,0.64,801,0.871,> 2560,0.645,5.19,0.951,> 10,0.87,> 100,0.964,> 20
"WSU-NHL (lymphoid neoplasm, suspension)",0.957,> 1200,0.985,> 30,0.365,143,0.971,> 2560,0.717,7.53,0.909,> 10,0.969,> 100,0.986,> 20
"QIMR-WIL (acute myeloid leukaemia, suspension)",0.555,106,0.869,26.2,0.518,359,0.766,915,0.568,3.05,0.889,> 10,0.452,4.65,0.791,8.69
"NCI-H2081 (small cell lung carcinoma, suspension)",0.906,> 1200,0.984,> 30,0.782,2280,0.896,> 2560,0.823,20.3,0.966,> 10,0.96,> 100,0.981,> 20
"697 (lymphoblastic leukaemia, suspension)",0.325,27.3,0.984,> 30,0.47,269,0.754,710,0.739,8.12,0.832,4.7,0.457,4.89,0.784,6.75
"L-1236 (Hodgkin lymphoma, suspension)",0.569,112,0.991,> 30,0.833,2610,0.761,780,0.988,> 32,0.875,7.26,0.789,36.8,0.971,> 20
"Ramos-2G6-4C10 (Burkitt lymphoma, suspension)",0.326,26.6,0.985,> 30,0.435,219,0.701,533,0.767,10.2,0.889,8.5,0.307,1.97,0.878,15.3
"CPC-N (small cell lung carcinoma, suspension)",0.825,808,0.976,> 30,0.616,691,0.919,> 2560,0.985,> 32,0.985,> 10,0.943,> 100,0.855,18.3
"KS-1 (glioma, adherent)",0.285,15.7,0.884,> 30,0.505,330,0.756,1080,0.708,9.06,0.801,6.33,0.222,0.762,0.878,> 20
"JVM-3 (lymphoid neoplasm, suspension)",0.951,> 1200,0.82,17.5,0.677,1010,0.948,> 2560,0.886,> 32,0.66,1.75,0.987,> 100,0.969,> 20
"SU-DHL-16 (B-cell lymphoma, suspension)",0.485,69.1,0.99,> 30,0.331,125,0.746,636,0.749,8.07,0.971,> 10,0.348,2.68,0.914,14.6
